Screen size: about 150,000 compounds; about 540 (0.36%) showed an effect of 50% or more. The list shows a part of the results.

In the assay the test system is Plasmodium falciparum. Kind of assay: Primary screen in NF54 nanoGlo assay, in single point, at 2uM, 72h; a lower Z score goes with more inhibition. The note with it: timepoint 72 hour. It is filed as functional, Erythrocyte.
One may read the % Inhibition as the change of the read-out against control, counted positive when it falls. As for `Cc1cccc(C(=O)N2C[C@@H]3CN(CC4CCC4)C[C@]3(C(=O)O)C2)c1`, the “% Inhibition” value was -1% and the Z score is listed as 0.16.

As for `Cc1ccc(C)c(C2CN(C(=O)c3ccc(OC(C)(C)C)cn3)C(C)CO2)c1` (stereo not given), the “% Inhibition” value is -8% and the Z score stood at 1.31.

On to `CC[C@H](C)S(=O)(=O)NC(=O)c1csc(C2CCCCC2)n1`, for which the “% Inhibition” value was -10% and the Z score turned out to be 1.01.

For `COc1ccccc1-n1nc(C)c(Cc2ccccc2)c1O`, the “% Inhibition” value was 31% and the Z score is -3.49.

In the case of `CCC(NC(=O)NC(C)c1ccncc1)c1nc(C)cs1` (stereo not given), the “% Inhibition” value came to 0% and the Z score was 0.

Consider `O=C(NC1CCCCC1)C1CCN(C(=O)c2nnn3c2CO[C@H](c2ccc(Cl)cc2)C3)CC1`, for which the “% Inhibition” value is listed as -5% and the Z score is on record as 0.61.

`Nc1nnc(CCNC(=O)C2(N3CCOCC3)CCCCC2)s1`: the “% Inhibition” value is recorded as -9% and the Z score amounted to 0.88.

For `COc1cncc(-n2cnc3ccccc32)c1`, the “% Inhibition” value is -9% and the Z score is recorded as 1.2.

As for `CCCc1nc(N2CCCN(C(=O)Nc3ccc(C)cc3C)CC2)c2c(-c3cccc(C(F)(F)F)c3)noc2n1`, the “% Inhibition” value was -4% and the Z score is given as 0.74.

`CC(C)(CO)CCCNC(=O)N1CCCC(C)(C)CC1`: the “% Inhibition” value is -5% and the Z score is 0.65.

On to `N#Cc1ccccc1-c1ccc(CN2C[C@H]3C[C@H](O)[C@@H](O)C[C@H]3C2)o1`, for which the “% Inhibition” value was -5% and the Z score is 0.96.

`N#Cc1nc(C2CC2c2ccccc2)oc1NCCc1ccccc1` (stereo not given): the “% Inhibition” value is listed as -11% and the Z score is on record as 1.46.

As for `CC1CN(C(=O)C(C)S(C)(=O)=O)CCO1` (stereo not given), the “% Inhibition” value was -8% and the Z score is listed as 1.53.

With `COC1CCC(N(C)C(=O)c2cc(C)no2)CC1` (stereo not given), the “% Inhibition” value is listed as -8% and the Z score was 0.83.

Consider `Cc1nc(CN2C(=O)C(=O)c3cc(Br)ccc32)cs1`, for which the “% Inhibition” value was 38% and the Z score is listed as -5.11.

As for `O=C(NCc1cccnc1)c1nn(-c2cccc(C(F)(F)F)c2)c(=O)n(Cc2ccc(F)cc2)c1=O`, the “% Inhibition” value was -4% and the Z score is 0.36.

On to `Cc1nc2cc(-c3ccc(C(=O)N4CCNC(=O)CC4)cc3)ccc2s1`, for which the “% Inhibition” value is recorded as -8% and the Z score is 1.21.

With `COc1cccc(C(=O)N(Cc2ccc(C)cc2)c2cccc(CC(=O)N[C@@H](C)c3ccccc3)c2)c1`, the “% Inhibition” value is -8% and the Z score turned out to be 1.49.

With `CC1=C(c2ccccc2)[C@H]1C(=O)NC1(C(=O)O)CCCC1`, the “% Inhibition” value is given as 9% and the Z score is -1.17.

Consider `N#Cc1cccc(CN[C@H]2CCCN(O)C2=O)c1`, for which the “% Inhibition” value is -2% and the Z score was determined as 0.24.

As to `Cn1cccc1C(=O)NC[C@H](O)c1ccsc1`, the “% Inhibition” value is recorded as 11% and the Z score is -1.65.

As for `CC(C)N(CC(N)=O)Cc1cc(Br)ccc1F`, the “% Inhibition” value was -8% and the Z score came to 1.1.

`COc1ccccc1NC(=O)N(Cc1cc(Cl)ccc1OS(=O)(=O)c1ccc(F)cc1)C(C)C`: the “% Inhibition” value is given as -9% and the Z score was 1.24.

As to `CCc1nc(CN(CCc2ccc(OC)c(OC)c2)C2CCCCC2)n[nH]1`, the “% Inhibition” value is recorded as -2% and the Z score is 0.23.

Take `Cc1ccc(CC2(NC(=O)c3cc(C(C)(C)C)nc(=O)[nH]3)CC2)cc1`: the “% Inhibition” value is 4% and the Z score is -0.6.

Consider `Cn1nnc(CN2CCC[C@H]2CN2CCOCC2)n1`, for which the “% Inhibition” value is listed as -14% and the Z score amounted to 2.59.

For the molecule `O=C1C2C(C(=O)N1Cc1ccc(Cl)cc1Cl)C1C=CC2C12CC2` (stereo not given), the “% Inhibition” value worked out at 8% and the Z score was -1.08.

On to `Cc1cnc(N2CCC[C@H]2CCc2ccccn2)nc1`, for which the “% Inhibition” value is 2% and the Z score is -0.29.

`O=C(CCC1CC1)N1CCN(c2ncnc3ccsc23)C[C@@H](O)C1`: the “% Inhibition” value is given as -9% and the Z score stood at 1.42.

With `CN(C)c1cncc(C(=O)NC(C)(C)c2cnn(C)c2)c1`, the “% Inhibition” value is -9% and the Z score stood at 1.07.

`C[C@H]1CC(F)(F)CCN1C(=O)c1ncccc1N`: the “% Inhibition” value is reported as -5% and the Z score was 1.02.

With `Cc1nc(CCN)cc(N(C)Cc2csc(C(C)C)n2)n1`, the “% Inhibition” value is reported as -7% and the Z score stood at 1.04.

On to `Cn1ncnc1C1(O)CCN(c2ncnc3ccsc23)CC1`, for which the “% Inhibition” value is on record as -1% and the Z score is 0.17.

Take `COc1ccc(Nc2nc(N3CCN(C(=O)c4ccco4)CC3)nc3ccccc23)c(OC)c1`: the “% Inhibition” value was -5% and the Z score was 0.64.

`O=C(NC[C@H]1CCCO1)c1ccc(N2CCCCS2(=O)=O)cc1`: the “% Inhibition” value is recorded as -12% and the Z score is listed as 1.6.

For `CCCn1nccc1-c1ccc(-n2ccnc2)nn1`, the “% Inhibition” value is reported as 7% and the Z score is -1.37.

Turning to `CC[C@@](C)(C#N)NC(=O)c1ccc(C#N)cc1`, the “% Inhibition” value is reported as -9% and the Z score amounted to 1.83.

Turning to `Cc1cn(-c2c(F)cccc2F)nc1C(=O)N1CC(CO)C1`, the “% Inhibition” value was 0% and the Z score is recorded as -0.01.

Consider `CN1CCN(C)[C@@H](CNc2ncnc3c2Cc2ccccc2OC3)C1`, for which the “% Inhibition” value is given as -6% and the Z score amounted to 0.62.

`CNC(=O)c1cccnc1N(C)C[C@H]1CC(=O)N(C2CCCC2)C1`: the “% Inhibition” value is given as -2% and the Z score was 0.39.

For the molecule `O=C(c1cc[nH]c(=O)c1)N1CCCCCC1CC(O)c1ccco1` (stereo not given), the “% Inhibition” value is -4% and the Z score came out at 0.48.

Turning to `Cc1ccc(N2C[C@@H](c3nnc(N)o3)CC2=O)cc1`, the “% Inhibition” value came out at 38% and the Z score is on record as -5.05.

With `O=C(Nc1cccc(-c2ncc[nH]2)c1)c1ccc(O)nc1`, the “% Inhibition” value was -7% and the Z score is reported as 0.69.

In the case of `Cc1ccc(NC(=O)c2nn[nH]c2[C@@H]2CCCN2)cc1`, the “% Inhibition” value is -4% and the Z score amounted to 0.5.

In the case of `COc1ccc(S(=O)(=O)N2C[C@H]3CN(C(=O)Nc4cccc(OC)c4)C[C@@H](C2)O3)cc1`, the “% Inhibition” value was -8% and the Z score came to 0.73.

As to `Cc1noc(CN(C)C(=O)[C@@H]2CC[C@H](NC(=O)c3cc(C)oc3C)C2)n1`, the “% Inhibition” value was -2% and the Z score came to 0.3.

On to `CCCC(=O)NCCNc1cc(-n2ccc(C)n2)ncn1`, for which the “% Inhibition” value is 3% and the Z score is -0.44.

As for `Cn1nc(-c2ccncc2)cc1CNC(=O)c1ccsc1`, the “% Inhibition” value is -17% and the Z score came out at 2.22.

For the molecule `O=C(Nc1cccc2ccccc12)c1ccc2ncsc2c1`, the “% Inhibition” value was -7% and the Z score stood at 1.22.

As to `COc1ncccc1CN(C)S(=O)(=O)N(C)C`, the “% Inhibition” value was -3% and the Z score is given as 0.4.

Turning to `O=C(Nc1cnn([C@H]2CCOC2)c1)c1ccccn1`, the “% Inhibition” value is recorded as 16% and the Z score is listed as -2.09.

On to `CN(C)S(=O)(=O)Nc1cccc(Br)c1`, for which the “% Inhibition” value is -3% and the Z score was 0.39.

With `COCC(=O)Nc1cc(C(=O)NCCc2cccs2)c2c(c1)ncn2CCc1ccccc1`, the “% Inhibition” value is reported as -10% and the Z score was determined as 1.41.

Consider `N#Cc1nc(N2CCC[C@H](CN3CCOCC3)C2)ccc1Cl`, for which the “% Inhibition” value was -2% and the Z score was determined as 0.23.

For the molecule `CCc1cc(N2CC(O)(c3cnnn3C)C2)ncn1`, the “% Inhibition” value is -4% and the Z score is listed as 0.67.
